The text below walks through data of the antibiotic and cytotoxicity screens of Wong et al. (2023).

One assay relates to HSkMC. Nature of the assay: cytotoxicity call (relative viability < 0.9). Conditions: 10 µM.
The subject of the next assay is HepG2. Description: cytotoxicity call (relative viability < 0.9). The following applies: 10 µM.
The test system of another assay is S. aureus RN4220. Nature of the assay: growth inhibition call (relative growth <= 0.2). Conditions: 50 µM.

This is one part of the list.

For the compound `Cc1ccc(N2C[C@@H](N)CC2=O)cc1`, the cytotoxicity call in the assay with HSkMC and in the assay on HepG2 was “inactive” each time. Also, the growth inhibition call in the assay on S. aureus RN4220 was “inactive”.
With `Cc1noc(C)c1S(=O)(=O)Nc1ccc2c(c1)C(=O)N([C@@H](C)CO)C[C@@H](C)[C@@H](CN(C)C)OCCCC[C@@H](C)O2`, the cytotoxicity call with HSkMC and with HepG2 was “inactive” each time. In the assay with S. aureus RN4220, the growth inhibition call was “inactive”.
As to `C[C@H]1CN([C@@H](C)CO)C(=O)c2cc(C#CC3CCCC3)cnc2O[C@H]1CN(C)C(=O)Cc1ccccn1`, the cytotoxicity call in the assay on HSkMC and in the assay with HepG2 was “inactive” in each case. Moreover, the growth inhibition call with S. aureus RN4220 is “inactive”.
`COc1cccc(-c2ccc3c(c2)O[C@@H](CN(C)C(=O)C2CCOCC2)[C@@H](C)CN([C@@H](C)CO)S3(=O)=O)c1`: the cytotoxicity call with HSkMC and in the assay with HepG2 was “inactive” in each case. In the assay with S. aureus RN4220, the growth inhibition call is “inactive”.
`COc1ccc(S(=O)(=O)Nc2ccc3c(c2)C(=O)N([C@@H](C)CO)C[C@@H](C)[C@@H](CN(C)C(=O)Nc2c(C)noc2C)OCCCC[C@@H](C)O3)cc1`: the cytotoxicity call in the assay with HSkMC and in the assay with HepG2 was “inactive” throughout. Moreover, the growth inhibition call in the assay with S. aureus RN4220 is “inactive”.
Turning to `C[C@@H]1CN([C@@H](C)CO)C(=O)c2cc(NC(=O)NC3CCCCC3)ccc2O[C@@H](C)CCCCO[C@H]1CN(C)C(=O)Nc1cccc2ccccc12`, the cytotoxicity call in the assay on HSkMC and with HepG2 was “inactive” throughout. In the assay on S. aureus RN4220, the growth inhibition call was “inactive”.
Take `C[C@H](CO)N1C[C@H](C)[C@@H](CN(C)S(=O)(=O)c2ccc(Cl)cc2)OCCCC[C@H](C)Oc2ccc(NC(=O)C3CCCCC3)cc2C1=O`: the cytotoxicity call with HSkMC and in the assay on HepG2 was “inactive” throughout. The growth inhibition call in the assay on S. aureus RN4220 was “inactive”.
Consider `COc1ccc(S(=O)(=O)N(C)C[C@H]2Oc3ccc(NC(=O)C4CC4)cc3C(=O)N([C@H](C)CO)C[C@H]2C)cc1`, for which the cytotoxicity call in the assay on HSkMC and in the assay on HepG2 was “inactive” in each case. In addition, the growth inhibition call in the assay on S. aureus RN4220 was “inactive”.
With `C[C@H]1CCCCO[C@@H](CN(C)S(=O)(=O)c2cn(C)cn2)[C@@H](C)CN([C@@H](C)CO)C(=O)c2cc(NC(=O)Nc3ccc(C(F)(F)F)cc3)ccc2O1`, the cytotoxicity call in the assay on HSkMC and with HepG2 was “active” in each case. The growth inhibition call with S. aureus RN4220 is “inactive”.
Turning to `CN1C2CCC1CC(OC(c1ccccc1)c1ccccc1)C2.CS(=O)(=O)O` (configuration not stated), the cytotoxicity call in the assay with HSkMC was “inactive”. Also, in the assay on HepG2, the cytotoxicity call is “active”. Also, in the assay with S. aureus RN4220, the growth inhibition call is “inactive”.
As to `O=C(NCc1ccccc1)[C@@H]1c2ccccc2C(=O)N(Cc2ccccc2C(F)(F)F)[C@H]1c1ccc(CO)cc1`, the cytotoxicity call with HSkMC and in the assay with HepG2 was “inactive” throughout. In addition, the growth inhibition call in the assay on S. aureus RN4220 is “inactive”.
Take `C[C@H](CO)N1C[C@H](C)[C@H](CN(C)C(=O)Nc2ccc(F)cc2)Oc2cc(C#CC3(O)CCCC3)ccc2S1(=O)=O`: the cytotoxicity call in the assay with HSkMC and in the assay with HepG2 was “inactive” throughout. Further, the growth inhibition call with S. aureus RN4220 is “inactive”.
Turning to `C[C@@H]1CN([C@H](C)CO)C(=O)c2cccc(NC(=O)c3nc4ccccc4s3)c2O[C@@H]1CN(C)Cc1ccc(Oc2ccccc2)cc1`, the cytotoxicity call in the assay on HSkMC and in the assay on HepG2 was “inactive” in each case. Moreover, in the assay with S. aureus RN4220, the growth inhibition call is “inactive”.
Take `C[C@@H]1CCCCO[C@H](CN(C)Cc2ccc(Cl)c(Cl)c2)[C@H](C)CN([C@@H](C)CO)C(=O)c2cc(NS(C)(=O)=O)ccc2O1`: in the assay on HSkMC, the cytotoxicity call was “inactive”. Moreover, the cytotoxicity call with HepG2 is “active”. The growth inhibition call with S. aureus RN4220 was “inactive”.
`C[C@H](CO)N1C[C@H](C)[C@@H](CN(C)Cc2ccc(C(F)(F)F)cc2)OCCCC[C@H](C)Oc2ccc(NC(=O)c3ccncc3)cc2C1=O`: the cytotoxicity call in the assay with HSkMC and in the assay on HepG2 was “inactive” each time. Further, in the assay on S. aureus RN4220, the growth inhibition call is “inactive”.
For the compound `C[C@@H]1CCCCO[C@@H](CN(C)Cc2ccc3c(c2)OCO3)[C@@H](C)CN([C@@H](C)CO)C(=O)c2cc(NC(=O)NC3CCCCC3)ccc2O1`, the cytotoxicity call in the assay with HSkMC and with HepG2 was “inactive” each time. The growth inhibition call in the assay on S. aureus RN4220 is “inactive”.
Turning to `Cc1noc(C)c1NC(=O)N(C)C[C@@H]1Oc2ccc(NS(C)(=O)=O)cc2C(=O)N([C@H](C)CO)C[C@@H]1C`, the cytotoxicity call in the assay with HSkMC and in the assay on HepG2 was “inactive” in each case. The growth inhibition call with S. aureus RN4220 was “inactive”.
Consider `Cc1ccc(-c2cnc3c(c2)C(=O)N([C@H](C)CO)C[C@@H](C)[C@@H](CN(C)C(=O)Cc2cccnc2)O3)cc1`, for which the cytotoxicity call in the assay with HSkMC and in the assay on HepG2 was “inactive” throughout. Further, the growth inhibition call in the assay with S. aureus RN4220 was “inactive”.
Turning to `Cc1ccc(S(=O)(=O)Nc2ccc3c(c2)C(=O)N([C@@H](C)CO)C[C@H](C)[C@H](CN(C)C(=O)CCC(F)(F)F)OCCCC[C@@H](C)O3)cc1`, the cytotoxicity call in the assay on HSkMC and in the assay on HepG2 was “inactive” throughout. In addition, the growth inhibition call in the assay with S. aureus RN4220 was “inactive”.
Turning to `O=C(CCNCCO)c1ccccc1`, the cytotoxicity call in the assay with HSkMC and in the assay on HepG2 was “inactive” in each case. For the same compound, the growth inhibition call in the assay with S. aureus RN4220 is “inactive”.
With `COc1ccc2c3c(ccc2c1)-c1[nH]c2ccccc2c1CC3`, the cytotoxicity call in the assay on HSkMC (human skeletal muscle cells) and in the assay on HepG2 was “inactive” throughout. In addition, in the assay on S. aureus RN4220, the growth inhibition call was “inactive”.
`C[C@H](CO)N1C[C@H](C)[C@@H](CN(C)S(=O)(=O)c2cn(C)cn2)Oc2ccc(NC(=O)Cc3ccccc3)cc2CC1=O`: the cytotoxicity call in the assay with HSkMC and in the assay with HepG2 was “inactive” throughout. The growth inhibition call in the assay on S. aureus RN4220 was “inactive”.
Consider `C[C@@H]1CN([C@@H](C)CO)C(=O)c2cccc(NS(=O)(=O)c3ccc(F)cc3)c2O[C@H]1CN(C)C(=O)Nc1ccc(C(F)(F)F)cc1`, for which the cytotoxicity call in the assay with HSkMC and in the assay with HepG2 was “inactive” throughout. The growth inhibition call in the assay with S. aureus RN4220 is “inactive”.
With `COc1ccc(NC(=O)Nc2ccc3c(c2)C(=O)N([C@H](C)CO)C[C@H](C)[C@@H](CN(C)C(=O)Nc2ccc4c(c2)OCO4)OCCCC[C@H](C)O3)cc1`, the cytotoxicity call with HSkMC was “inactive”. Moreover, in the assay on HepG2, the cytotoxicity call is “active”. In addition, the growth inhibition call in the assay on S. aureus RN4220 is “inactive”.
